Experimental data taken from article PMC4336329 (PLoS ONE, 2015).
Among all 310,000 compounds or so, about 2,200 (0.71%) showed an effect of 50% or more. The effect is printed as a negative number. This is one part of the list.

Biological target: human ether-à-go-go-related gene (hERG) potassium channel (human, UniProt Q12809)
Assay: primary screen, population patch clamp on CHO cells stably expressing hERG

Sequence of human ether-à-go-go-related gene (hERG) potassium channel (Q12809 whole entry, looked up): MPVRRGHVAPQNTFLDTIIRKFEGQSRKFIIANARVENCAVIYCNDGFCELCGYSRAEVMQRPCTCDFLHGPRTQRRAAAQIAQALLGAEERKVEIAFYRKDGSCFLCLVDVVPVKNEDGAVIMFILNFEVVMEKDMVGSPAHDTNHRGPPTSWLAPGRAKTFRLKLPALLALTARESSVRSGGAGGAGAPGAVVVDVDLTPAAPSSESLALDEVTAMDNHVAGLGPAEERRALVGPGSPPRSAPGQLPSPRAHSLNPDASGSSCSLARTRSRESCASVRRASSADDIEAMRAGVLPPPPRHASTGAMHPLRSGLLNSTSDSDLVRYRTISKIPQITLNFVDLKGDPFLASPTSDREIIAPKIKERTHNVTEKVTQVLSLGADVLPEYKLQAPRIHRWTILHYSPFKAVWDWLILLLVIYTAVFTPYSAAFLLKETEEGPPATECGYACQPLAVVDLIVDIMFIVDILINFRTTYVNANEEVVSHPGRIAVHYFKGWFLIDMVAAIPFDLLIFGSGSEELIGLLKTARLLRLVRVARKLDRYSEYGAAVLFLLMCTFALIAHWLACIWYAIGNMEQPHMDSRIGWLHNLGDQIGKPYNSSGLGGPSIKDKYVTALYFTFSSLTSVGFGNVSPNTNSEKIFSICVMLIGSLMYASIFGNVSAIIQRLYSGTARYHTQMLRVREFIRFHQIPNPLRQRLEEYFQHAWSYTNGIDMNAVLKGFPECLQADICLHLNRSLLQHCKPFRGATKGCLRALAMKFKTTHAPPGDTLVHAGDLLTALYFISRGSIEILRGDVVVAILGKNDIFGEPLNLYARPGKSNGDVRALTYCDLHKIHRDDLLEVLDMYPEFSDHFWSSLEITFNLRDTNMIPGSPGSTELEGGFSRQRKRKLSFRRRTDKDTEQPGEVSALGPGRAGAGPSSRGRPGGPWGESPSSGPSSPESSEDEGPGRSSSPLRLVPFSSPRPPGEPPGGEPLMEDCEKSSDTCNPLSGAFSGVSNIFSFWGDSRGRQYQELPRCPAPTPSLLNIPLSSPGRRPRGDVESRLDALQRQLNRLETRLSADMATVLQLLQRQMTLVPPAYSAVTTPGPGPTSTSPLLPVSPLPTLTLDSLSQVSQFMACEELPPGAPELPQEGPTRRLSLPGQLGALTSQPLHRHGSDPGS

| SMILES | hERG current change (%, negative = inhibition) at 1uM |
| --- | --- |
| CCNC(=O)COc1ccc(-c2ccccc2)cc1 | 10.5% |
| CCCC(=O)Nc1cccc(Oc2ccc3c(c2)C(=O)NC3=O)c1 | 9.76% |
| Cc1ccsc1C1C2=C(CC(C)(C)CC2=O)Nc2ncnn21 (stereo not drawn) | 7.12% |
| Cc1ccc(S(=O)(=O)NCC2CCC(C(=O)NCc3ccco3)CC2)cc1 (stereo not drawn) | -14.7% |
| C=C1CCN([C@@H](CC(C)C)C(=O)NCCCc2ccccc2)S(=O)(=O)c2ccccc21 | 1.55% |
| COc1cccc(NC(=O)CC2SC(=Nc3ccccc3)NC2=O)c1 (stereo not drawn) | 8.25% |
| Cc1occc1C(=O)N1CCCc2ccccc21 | 8.98% |
| COc1ccccc1CCN1CCCC(CN(C)C(=O)CCC(N)=O)C1 (stereo not drawn) | 16.9% |
| CC1CCC(C(C)C)C(OC(=O)COC(=O)c2ccc(N)cc2)C1 (stereo not drawn) | 8.82% |
| O=C(O)C1CCCCN1S(=O)(=O)c1ccccc1 (stereo not drawn) | 9.44% |
| CC(C)(C)NC(=O)c1cc2c(ccc3ccccc32)oc1=O | 20% |
| CCOc1cc(C2C(C(=O)c3ccccc3)=C(C(=O)OC)Nc3nnnn32)ccc1O (stereo not drawn) | 9.59% |
| Clc1ccc2nc(SCc3nnc(-c4ccccc4)o3)[nH]c2c1 | 0.808% |
| Cc1ccc(NC(=O)COc2ccc(Br)cc2C)cc1 | -1.08% |
| CCn1c(SCC(=O)c2ccc3ccccc3c2)nnc1-c1cccs1 | -0.175% |
| NC(=O)COc1ncnc2scc(-c3ccc(F)cc3)c12 | 9.57% |
| O=C(O)c1ccc(CSc2nnc(Cc3ccccc3)o2)cc1 | -1.82% |
| CCCCCN(C(=O)CCC(=O)OCc1ccccc1C)c1c(N)n(CCCC)c(=O)[nH]c1=O | 7.65% |
| COc1cc(C)nc(N2CCCC(C(=O)Nc3cccc(Cl)c3C)C2)n1 (stereo not drawn) | 5.28% |
| COc1ccc(-c2noc(CCC(=O)Nc3cccc(C)c3)n2)cc1 | 8.39% |
| Cc1cc(C)cc(OCC(=O)Nc2cc(C)on2)c1 | 15.8% |
| CSc1ccc(S(=O)(=O)NCC(=O)OCC(=O)NCC2CCCO2)cc1[N+](=O)[O-] (stereo not drawn) | 9.64% |
| CCCCn1c(C)csc1=Nc1cccnc1 | 7.6% |

| SMILES | hERG current change (%, negative = inhibition) at 1uM |
| --- | --- |
| O=C(COC(=O)/C=C/c1ccc(Cl)cc1)Nc1ccccc1-c1ccccc1 | 13.9% |
| COc1ccc(CN(C(=O)c2nsc(Cl)c2Cl)C(C(=O)NC2CCCC2)c2ccc(OC)cc2)cc1 (stereo not drawn) | 9.92% |
| O=C(C1CC1)N1CCc2cc(Br)cc(S(=O)(=O)NCc3ccco3)c21 | -20.1% |
| CCOC(=O)C1CCCN(S(=O)(=O)c2ccc3c(c2)N(C)C(=O)CC(=O)N3C)C1 (stereo not drawn) | 11.1% |
| COc1ccc(NC(=O)c2cn(CCC#N)nc2-c2cccc([N+](=O)[O-])c2)cc1 | 7.25% |
| CC(C)Oc1c(Cl)cc(CNC(C)(C)CO)cc1Cl | 12.8% |
| Cc1cccc2nc(CNc3ccc(F)cc3)cn12 | 0.326% |
| CSc1ccccc1C(=O)N1CCN(c2ccc(F)cc2)CC1 | -8.31% |
| COC(=O)COc1ccc(S(=O)(=O)NC2CCCCCC2)cc1 | 9.53% |
| COc1cc(/C=C(\C#N)c2ccccn2)ccc1OCC(=O)Nc1cccc(C(F)(F)F)c1.Cl | 5.79% |
| Cn1c(=O)n(CCO)c(=O)c2c1nc(Br)n2Cc1ccccc1 | 5.39% |
| O=C(CCc1ccccc1)Nc1nnc(-c2ccccn2)o1 | 5.94% |
| Cc1ccc(CN2CCSc3ccc(C(=O)NCC4CCCO4)cc32)cc1 (stereo not drawn) | 6.44% |
| Cc1ccc(NC(=O)c2c(C)nc3ccccn23)cc1C | 7.72% |
| COc1ccc(-n2c(=O)/c(=C\c3cccs3)s/c2=C(/C#N)C(=O)NCCN2CCOCC2)cc1 | 14.3% |
| CCOC(=O)C1=C(C)OC(N)=C(C#N)C1c1ccc(OC)c(CSc2ccccn2)c1 (stereo not drawn) | 5.22% |
| Cc1ccccc1NC(=O)CNc1ccccc1N1CCCCC1 | 6.7% |
| CSc1nc(-c2ccco2)nn1C(=O)Cc1ccccc1 | 7.05% |
| Nc1nc(SCC(=O)Nc2ccc(Oc3ccccc3)cc2)n[nH]1 | 6.43% |
| O=C(c1cc(COc2cccc(C(F)(F)F)c2)on1)N1CCC(Oc2cccnc2)CC1 | 7.8% |
| Cc1cccc(C(=O)Nc2ccc(C(=O)N/N=C/c3cccc(C)n3)cc2)c1 | 17.5% |
| CCCCn1c(N)c(N(CCC(C)C)C(=O)c2[nH]c(C)c(C(=O)OCC)c2C)c(=O)[nH]c1=O | -2.37% |
| O=C(CCC1CCCC1)N1CCN(C(=O)C2CC2)CC1 | 11.1% |

| SMILES | hERG current change (%, negative = inhibition) at 1uM |
| --- | --- |
| O=C(Nc1ccc(Cl)c(Cl)c1)OCCNC(=O)c1ccncc1 | 11.5% |
| Cc1ccc(C2(c3ccccc3)NC(=O)N(CC(=O)N3CC(=O)Nc4ccccc43)C2=O)cc1C (stereo not drawn) | 2.1% |
| COc1cc(C2=NOC(C(=O)N3CCCc4ccccc43)C2)cc(OC)c1OC (stereo not drawn) | 10.3% |
| CC(C)(C)OC(=O)NCC12C=CC(O1)C1C(=O)N(Cc3ccccc3)C(=O)C12 (stereo not drawn) | 10.8% |
| Cc1c(Cl)c([N+](=O)[O-])nn1CCCC(=O)NC1CCCCC1 | 11.7% |
| CC(C)c1ccc(N2C(=O)CSC23C(=O)N2CCCc4cccc3c42)cc1 (stereo not drawn) | 19.9% |
| CC1CN(c2nn3c(=O)c4ccccc4nc3c3ccccc23)CC(C)O1 (stereo not drawn) | -0.465% |
| CCCCN1C2CCCC1CC(NC(=O)C1CCCCC1)C2 (stereo not drawn) | 0.0034% |
| Cc1ccc(CNC(=O)COC(=O)c2cc(C)oc2C)cc1 | 13.1% |
| Cc1ccc(N(C(=O)c2csnn2)C(C(=O)NC2CCCCC2)c2cccnc2)cc1 (stereo not drawn) | 0.643% |
| COc1ccc(S(=O)(=O)N(CC(=O)NCc2ccco2)c2ccc(C)cc2)cc1OC | 14.7% |
| O=C(CSc1n[nH]c(-c2ccco2)n1)Nc1ccccc1 | -4.85% |
| CCN(CC)S(=O)(=O)c1ccc2c(c1)N(CC(=O)NCCN1CCOCC1)C(=O)CO2 | 18.8% |
| Cl.Clc1ccccc1CNC1CN2CCC1CC2 (stereo not drawn) | 11.7% |
| CCCOC(=O)c1[nH]c2c(c1C)C(=O)CC(c1cc(OC)c(OC)c(OC)c1)C2 (stereo not drawn) | 7.64% |
| O=C(c1ccc(Cn2c(=O)[nH]c3ccccc3c2=O)cc1)N1CCN(c2ccc(Cl)cc2)CC1 | 5.43% |
| COC(=O)C(CC(C)C)NC(=O)CNC(=O)c1ccccc1C (stereo not drawn) | 7.11% |
| CCC1CCCCN1C(=O)CSc1nc(N)cc(N)n1 (stereo not drawn) | 19.4% |
| Cc1cccc(NC(=S)N2CCN(c3ccccc3F)CC2)c1C | 8.16% |
| Cc1onc(-c2c(Cl)cccc2Cl)c1C(=O)NC1CCCCC1 | 4.95% |
| O=C(c1ccc(F)cc1)N1CCCC(c2nc(-c3cccs3)no2)C1 (stereo not drawn) | 12.1% |
| O=C1CCC([N+](=O)[O-])C(c2ccc(C(F)(F)F)cc2)N1 (stereo not drawn) | 7.21% |
| OCC[C@H]1C[C@H](O)[C@@H](O)[C@]2(CCCCO2)O1 | 14.5% |

| SMILES | hERG current change (%, negative = inhibition) at 1uM |
| --- | --- |
| Cc1cccc(N/N=C/c2ccncc2)c1 | 7.08% |
| COC(=O)Nc1ccc(S(=O)(=O)N(C)CC(F)(F)C(F)F)cc1 | 7.12% |
| CC12CCC(C(=O)N3CCN(C(c4ccccc4)c4ccccc4)CC3)(OC1=O)C2(C)C (stereo not drawn) | 12.9% |
| O=C(Nc1ccon1)c1csc2c1CCCC2 | -6.98% |
| CC(C)C(=O)Nc1cccc(NC(=O)c2cccnc2)c1 | -1.01% |
| CCCc1nnc(NC(=O)COC(=O)c2cc(C)nc3ccccc23)s1 | 8.02% |
| O=C(NCC1CCCO1)C(C(=O)c1ccccc1)n1ccccc1=O (stereo not drawn) | 7.06% |
| C=CCn1cnc2c(sc3nc(C)cc(C)c32)c1=O | 13.9% |
| COC(=O)c1ccc(C(=O)OC)c(NC(=O)c2cnc3n(c2=O)CCS3)c1 | 12.2% |
| O=C(O)CCC(=O)NCCc1cccc(Cl)c1 | 12.9% |
| O=S(=O)(c1ccc(Cl)cc1Br)N1CCCCC1 | -0.793% |
| CC(=O)c1cccc(N2C(=NC(=O)CCc3ccccc3)SC3CS(=O)(=O)CC32)c1 (stereo not drawn) | 21.2% |
| CCOc1ncccc1C(=O)Nc1ccc(OC)c(S(=O)(=O)N2CCCCC2)c1 | 12.9% |
| CN1CCN(CC/C=C2\c3ccccc3Sc3ccc(S(=O)(=O)N(C)C)cc32)CC1 | -6.73% |
| CCCCc1ccc(NC(=S)N2CCCC(CO)C2)cc1 (stereo not drawn) | 10.3% |
| CN(C(=O)CSCC(=O)O)C1CCCCC1 | 2.98% |
| O=C(NCCc1ccccn1)C1CCCN1S(=O)(=O)c1ccc(Cl)cc1 (stereo not drawn) | 12% |
| CCOc1ccccc1NC(=O)COc1coc(CN2CCc3ccccc32)cc1=O | 11.6% |
| CC(C)(C)n1nc2c(c1NC(=O)c1ccccc1C(F)(F)F)CS(=O)(=O)C2 | 9.78% |
| Cn1cccc1C(=S)N1CCOCC1 | 5.05% |
| CC1Cc2nc(SCC(=O)Nc3ccc(F)cc3)n(C)c(=O)c2S1 (stereo not drawn) | 3.18% |
